Source: the RNAGym collection of RNA variant scans (doi:10.7554/elife.90254)
Read counts are not given, so values of variants with three or more changes are uncertain.

B1: LINE1-mini (parent)
chain: GGCAGAGCUCAACACAGCGUGGCAAAGUGGCUGUGGCUAGACUGCC

Variants of: B1
Assay: self-cleavage, relative activity (ratio to wild type); higher = more cleavage; in vitro, sequencing; the parent is a self-cleaving ribozyme

Variant | self-cleavage
C10A G21A A24U U28C | 0.03
C10A A11U C15A | 0.03
C10A A11U C15G | 0.01
C10A A11G U28A U43A | 0
U9G G17A C42A U43G G44A | 0.09
C10A U34A G36A | 0.01
U9G G29A G44A | 0.03
U9G G21C A26C G29A G36U | 0.03
C10A G17C C23U | 0.02
C10A G19A G21A G29U U32G | 0.04
C10A C15G U20G | 0.02
C10A A12C A24G U32A | 0
C10A G22A A25G C31U | 0.01
C10A A16G A41U | 0
C10G A11G U20C A25G A26C G36A | 0
C10A G33U A41G | 0.05
C10A A14G A16U C46A | 0.04
U9G G22U G44C | 0.18
U9G U34A G40C G44U | 0.11
C10A A12C C31U | 0.02
C10A C23A U32C | 0
C10A G21U U32G | 0.04
U9G G30A C31G | 0.08
C10A A14G C37U A41G | 0.01

Variant | self-cleavage
C10A A25U U28A G33A C42U | 0.01
U9G G22C C37U U38G | 0.02
U9G C18G G44C | 0.01
C10A A14G C15G G17U C18U A25G G30A | 0.01
U9G C15U A39C | 0.04
C10A C13A G21U G29U | 0.01
C10A A24C G33U A41G | 0
C10A G21A G30U C45U | 0.11
C10A A25G A26G C42A | 0.01
C10A A16C C23U U38C | 0.02
C10A C13G G35C U43C | 0.02
U9G G33A C37A | 0.03
U9G C15U G35U | 0.06
C10A G21A G22A G40A | 0.01
C10A A24C G29U | 0.01
C10A C13A A14U G29U | 0.02
C10A U32C C37U C42U C46G | 0.01
C10A A11G U20C G21A A39C U43A | 0.01
C10A U20G C45U | 0.04
C10A A12C A25G G33U | 0.04
C10A G40C G44C | 0.07
C10A U20C U32A G33A | 0.03
C10A C37G G44A | 0.02
C10A A12G U20G A26G G30U C37U | 0.01

Variant | self-cleavage
U9G G19U U20C C23U A26G | 0.04
C10A C15A G44U | 0
C10A G17C U32C G36C A41U C45G | 0
U9G G29U G40A | 0.1
C10A G19A A24C | 0
C10A G21U U34C C37U | 0.01
C10A A11C C13A U20G G22C C23A G33U | 0.01
C10A C15A G33U A39G | 0.03
U9G G22A G29U U34C G36U C37G | 0.02
C10A C31U A39G G40C | 0
U9G G21C G29C A39C | 0.01
U9G C18U C23A A26C | 0.09
C10A C37U G44C | 0
C10A G22C G27U U34G | 0
U9G U20G G29U | 0.24
U9G C42G C46A | 0.2
C10A A11C G22U | 0
C10G A11C G19U U32G | 0.01
C10A G29U C45A | 0.02
C10A A16G A24U | 0.03
C10A C15G C18A G30A G33A C42G | 0.02
U9G G19U A41U | 0.04
C10A C23A G29U G33U C45A | 0.02
C10G A11G C13A | 0.02

Variant | self-cleavage
U9G C13U C23G A41G C45G | 0.03
U9G G36U G40A C46U | 0.03
C10A A14C C18A G29A G36C | 0.03
C10A A16U A24G G33A C42U | 0
C10A G19C A24U | 0.02
C10A G17C C18G U34A C37U | 0.01
C10A C13U C31G C46U | 0.02
C10A A16G A25G G35U C37U | 0.01
C10A C13U C37A U43C | 0.02
C10A A24C G35A | 0.02
C10A C15U A16U A24C A39G G40C | 0.03
C10A G22A G27U G30A | 0.02
C10A A12G C15U A16C C42G | 0.04
U9G U28A G36A G40A C45U | 0.34
C10A G29U G35A | 0.01
C10A U38C C42A | 0.01
C10A G27A G29C U38G | 0.04
C10A A14C U20C G22U G40A A41G | 0.01
U9G C13U G30U A39U | 0.01
C10A G40A G44A | 0.03
C10A U20A G36A | 0.04
C10A U20A G30C | 0.08
C10A A24G U32G | 0.08
C10A C13G G17A A26G U43A | 0.01

Variant | self-cleavage
C10A G36C C37G U38G A39U U43C | 0.01
C10A G17U G22C C46A | 0
C10A A25C C31A | 0.04
C10A A11C A26G | 0.01
C10A U34G G35C | 0.04
C10A A25U G27A | 0
C10A G27U C37G C42A U43C | 0
U9G G40U C46U | 0.04
C10A C18A C23U | 0.07
C10A A12C A16C G29C | 0.03
U9G C23A U34C G40C | 0
C10A A11C G29C | 0.07
C10A A11C G17U G33A U34A C42G | 0.01
C10A C13A G44U | 0.05
U9G C23A G30A G33A C46U | 0.04
C10A A25U U28G U43C | 0.01
C10A C15A G17A G30A U43A | 0.05
U9G U32A C42U | 0.08
C10A C37U G40U | 0
C10A A24U U34A G44C | 0.01
C10A G21A U28G | 0.02
U9G U32A A41U C46U | 0.01
U9G U34G G35U | 0.09
C10A G17U G19A C37A C45U | 0.01

Variant | self-cleavage
C10A A12C A25C G36C C46U | 0
U9G U28A G29U C31A | 0.09
U9G C37A G40A C42G | 0.09
C10A U32C G35U | 0.01
C10A G35A A41U U43C C45A | 0.01
C10A A14C C18G C31G | 0
C10A G17U A39G | 0.01
C10A C15U A26G | 0.05
C10A U20C A24G C31U U34A | 0
C10A A12U C18U C31A | 0
C10A G19U A25C G30A | 0.04
C10A C23G G30A | 0.04
C10A G19U U28C C46A | 0.03
C10A A25U G33A A39U G40A | 0.01
C10A C13U C42A | 0.03
C10A G35C G40A | 0.01
C10A A25C G35C C37A | 0.01
C10A A24G G29A | 0.02
C10A C13U A25U G33C U38C | 0.01
U9G C15A G17A U20G | 0.11
C10A G22C G29C C46G | 0.04
C10A G30A G44C | 0.02
C10A G17A A26C G30U G33U | 0.01
C10A G33C C42G | 0.27

Variant | self-cleavage
C10A C31U G33A G44C | 0.04
C10A U34C G35A G40U | 0.02
C10A C18G A39C | 0.01
C10A U28G G30C | 0.04
C10A A26C G29C G36C U38A | 0
C10A A24U U28A A39G | 0
C10A A25G G29U A41C | 0.01
U9G C15U U43C | 0.05
C10A C13G G27A G36U U43G | 0
C10A G36C A39G G40C | 0
C10A C18U G35A | 0.02
C10A A39U G40C | 0.01
C10A G17C G21U | 0.09
C10A G19U U34G G40A | 0.01
C10A A14C G29A G35C | 0.02
C10A C18G G44A | 0.04
C10A U28G G35U | 0.02
C10A G19A G21U A24U A26G | 0.04
C10A G22U G29A C46G | 0.06
C10A C37U G44U C45A | 0
C10A G29U U34A | 0.05
C10A A11C A14C C18U G44A | 0.03
C10A G17A A25G A41U G44A | 0.01
